# According to PubChem BioAssay (Tox21):
# Inconclusive means that the source gave no clear call. Such entries were picked first, then a sample of the others. For some of these results: Potencies of inconclusive entries are left out as doubtful fits. Activity calls are given as the source filed them. Unless noted, calls come from the whole dose curve; as a rule, active = well fitted curve in the direction sought with a large enough effect in the repeat runs; inconclusive = weak or mixed curves; inactive = no such curve, though single readings can be large; an effect the other way counts as inactive or inconclusive.
# What was measured:
# [1] = qHTS assay to identify small molecule antagonists of the glucocorticoid receptor (GR) signaling pathway - cell viability counter screen (AID 720693); conditions: GR-bla HeLa viability, CellTiter-Glo luminescence, 18 h, with 5 nM dexamethasone present; viability change, negative = cytotoxic: at 58.5 µM (top of the series); note: potency is the fitted concentration of half-maximal effect; nearly all actives have a fitted effect of over 55% in size
# [2] = qHTS RealTime-Glo MT Cell Viability Assay in HepG2 cells - 8 hour (AID 1224873); note: nearly all actives have a fitted effect of over 55% in size; note: potency is the fitted concentration of half-maximal effect; for viability change, negative = cytotoxic: % is set by controls: 0 for no effect and ±100 for the full control effect
# Outline: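 Real-time viability: cells seeded at 600 per well together with NanoLuc and cell-permeant prosubstrate, compounds added after 5 h incubation. Luminescence tracked at 0, 8, 16, 24, 32 and 40 h of exposure.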
# [3] = Caspase-3/7 induction in HepG2 cells by small molecules, qHTS assay (AID 1346978); note: % is set by controls: 0 for no effect and ±100 for the full control effect; nearly all actives have a fitted effect of over 15% in size
# Outline: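 Caspase-3/7 induction was measured by Caspase-Glo 3/7 luminescence (30 min, room temperature) after a 17 hr compound exposure of wild-type HepG2 cells seeded at 2,000 per well and pre-incubated 5 hr.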
# [4] = target: Nuclear receptor subfamily 1 group I member 3 (Homo sapiens) (UniProt Q14994); assay: qHTS assay to identify small molecule agonists of the constitutive androstane receptor (CAR) signaling pathway (AID 1224839); note: nearly all actives have a fitted effect of over 15% in size; note: potency is the fitted concentration of half-maximal effect;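 for activation: HepG2 cells stably carrying human CAR and a CYP2B6 luciferase reporter; % is set by controls: 0 for no effect and ±100 for the full control effect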
# Sequence of UniProt Q14994 (Q14994 whole entry, looked up): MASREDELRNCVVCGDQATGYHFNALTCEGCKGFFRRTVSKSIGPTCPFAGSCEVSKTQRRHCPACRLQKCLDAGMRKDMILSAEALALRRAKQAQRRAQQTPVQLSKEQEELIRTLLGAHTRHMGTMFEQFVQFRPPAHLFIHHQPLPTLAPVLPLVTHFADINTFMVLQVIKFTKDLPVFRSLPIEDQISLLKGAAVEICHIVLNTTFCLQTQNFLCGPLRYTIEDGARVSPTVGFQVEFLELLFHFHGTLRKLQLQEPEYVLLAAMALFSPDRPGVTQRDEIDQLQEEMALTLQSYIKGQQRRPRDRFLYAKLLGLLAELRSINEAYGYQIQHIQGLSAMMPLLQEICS
# Outline: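 Luminescence read-out (ONE-Glo, 30 min, room temperature) from double-stable HepG2-CYP2B6-hCAR cells exposed 24 h to 15-point compound series in presence of 0.75 uM PK11195 final.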
# [5] = A CellTox Green Cytotoxicity Assay to monitor cytotoxicity in HepG2 cells - 8 hour (AID 1224890); note: nearly all actives have a fitted effect of over 45% in size; note: potency is the fitted concentration of half-maximal effect
# Outline: (§1)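 Using 1536-well format, dye-containing HepG2 suspension was seeded, allowed 5 h at 37 C/5% CO2, dosed by pintool with compounds, positive and negative controls, and imaged for fluorescence across 40 h.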
# [6] = target: Nuclear receptor subfamily 1 group I member 2 (Homo sapiens) (UniProt O75469); assay: CYP3A4 induction through human pregnane X receptor (PXR) by small molecules, qHTS assay (AID 1346984); conditions: DPX-2 HepG2 PXR, CYP3A4-luciferin luminescence, 24 h; activation: at 46.1 µM (top of the series) unless noted; note: nearly all actives have a fitted effect of over 40% in size; note: potency is the fitted concentration of half-maximal effect; for activation: % is set by controls: 0 for no effect and ±100 for the full control effect
# Outline: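 Readings come from a luciferase reporter: DPX-2 cells, which are HepG2 cotransfected with PXR and a CYP3A4-promoter construct, were exposed to test compounds for 24 h at 37C before One-Glo detection.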
# [7] = qHTS assay to identify small molecule agonists of the sonic hedgehog signaling (Shh) pathway - cell viability counter screen (AID 1259366); note: % is set by controls: 0 for no effect and ±100 for the full control effect; nearly all actives have a fitted effect of over 50% in size
# Outline: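 CellTiter-Fluor fluorescence read-out, 1 hr at 37C, added after 23hr compound exposure. Cells: 3T3 Gli1-Luc, an NIH/3T3 clone with stably integrated Gli1-Luc reporter, plated 4hr before compound.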
# [8] = qHTS assay to identify small molecule agonists of the TGF-beta/Smad signaling pathway - cell viability counter screen (AID 1346829); note: top concentration of the series differs between compounds; % is set by controls: 0 for no effect and ±100 for the full control effect; nearly all actives have a fitted effect of over 45% in size
# Outline: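 In parallel with the Smad reporter read, viability of HEK 293T cells stably carrying SBE-bla is quantified by ATP luminescence following 5 hr compound treatment.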
# [9] = target: Peroxisome proliferator-activated receptor delta (Homo sapiens) (UniProt Q03181); assay: qHTS assay to identify small molecule agonists of the peroxisome proliferator-activated receptor delta (PPARd) signaling pathway (AID 743212; calls by dose curve;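 note: HEK293H cells with PPARd UAS beta-lactamase reporter GeneBLAzer system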; note: potency is the fitted concentration of half-maximal effect); conditions: HEK293H PPARd-UAS-bla, beta-lactamase FRET ratio, 17 h; activation: at 62.6 µM (top of the series) unless noted
# Sequence of UniProt Q03181 (Q03181 whole entry, looked up): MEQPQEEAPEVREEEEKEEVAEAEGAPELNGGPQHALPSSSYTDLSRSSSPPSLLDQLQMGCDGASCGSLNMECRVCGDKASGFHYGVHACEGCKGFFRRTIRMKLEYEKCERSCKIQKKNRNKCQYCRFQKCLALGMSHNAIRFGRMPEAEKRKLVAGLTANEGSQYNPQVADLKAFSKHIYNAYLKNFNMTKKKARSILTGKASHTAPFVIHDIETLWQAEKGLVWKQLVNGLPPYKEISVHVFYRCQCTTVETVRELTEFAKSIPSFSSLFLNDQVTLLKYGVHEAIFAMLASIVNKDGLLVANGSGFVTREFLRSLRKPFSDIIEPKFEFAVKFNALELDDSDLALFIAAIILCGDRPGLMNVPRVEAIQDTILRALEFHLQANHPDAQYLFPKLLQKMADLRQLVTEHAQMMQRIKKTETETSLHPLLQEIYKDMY
# Outline: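 HEK293H PPARd-bla cells; 5 h preincubation 37 C/5% CO2; compound (DMSO) 37 C; LiveBLAzer B/G FRET substrate 2 h RT; fluorescence intensity.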
# [10] = target: Androgen receptor (Homo sapiens) (UniProt P10275); assay: qHTS assay to identify small molecule antagonists of the androgen receptor (AR) signaling pathway using the MDA cell line in the presence of 0.5 nM R1881 (AID 1259243); note: nearly all actives have a fitted effect of over 50% in size; note: potency is the fitted concentration of half-maximal effect
# Sequence of UniProt P10275 (P10275 whole entry, looked up): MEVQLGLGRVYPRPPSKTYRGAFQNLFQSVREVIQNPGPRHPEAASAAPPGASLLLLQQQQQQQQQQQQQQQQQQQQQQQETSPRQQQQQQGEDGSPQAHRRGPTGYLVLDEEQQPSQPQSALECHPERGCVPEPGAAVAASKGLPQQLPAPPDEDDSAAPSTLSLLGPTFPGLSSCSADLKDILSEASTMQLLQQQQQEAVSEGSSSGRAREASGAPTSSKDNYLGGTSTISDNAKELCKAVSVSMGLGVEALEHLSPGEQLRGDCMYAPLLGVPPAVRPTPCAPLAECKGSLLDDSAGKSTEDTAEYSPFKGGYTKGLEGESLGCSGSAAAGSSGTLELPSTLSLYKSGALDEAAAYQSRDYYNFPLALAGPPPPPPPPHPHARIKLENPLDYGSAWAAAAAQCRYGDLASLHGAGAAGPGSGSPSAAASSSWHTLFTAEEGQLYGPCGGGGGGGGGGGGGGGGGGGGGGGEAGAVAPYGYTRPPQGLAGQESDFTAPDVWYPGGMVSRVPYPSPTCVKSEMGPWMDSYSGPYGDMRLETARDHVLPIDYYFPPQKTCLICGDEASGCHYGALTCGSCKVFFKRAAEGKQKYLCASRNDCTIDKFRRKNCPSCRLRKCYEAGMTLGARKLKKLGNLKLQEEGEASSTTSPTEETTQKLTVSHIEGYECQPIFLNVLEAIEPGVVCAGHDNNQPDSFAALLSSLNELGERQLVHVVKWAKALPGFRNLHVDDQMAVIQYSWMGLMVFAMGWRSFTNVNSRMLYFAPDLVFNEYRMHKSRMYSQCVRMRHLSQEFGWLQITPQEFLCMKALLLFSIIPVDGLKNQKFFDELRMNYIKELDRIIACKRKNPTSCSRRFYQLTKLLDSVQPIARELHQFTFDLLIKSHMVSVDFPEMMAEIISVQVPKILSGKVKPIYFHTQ
# Outline: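 Reporter cells cultured without CO2 receive test chemicals, then 0.5 nM R1881 final; after 16 hr at 37C, ONE-Glo is added and light output recorded.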
# [11] = A CellTox Green Cytotoxicity Assay to monitor cytotoxicity in HepG2 cells - 24 hour (AID 1224878); note: nearly all actives have a fitted effect of over 45% in size; note: potency is the fitted concentration of half-maximal effect
# Outline: as §1
# [12] = qHTS assay to identify small molecule antagonists of the estrogen receptor beta (ER-beta) signaling pathway - cell viability counter screen (AID 1259382); note: nearly all actives have a fitted effect of over 55% in size; note: potency is the fitted concentration of half-maximal effect
# Outline: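 In this multiplexed counter screen, cells were seeded at 2,000 per well in medium with 2% charcoal-stripped FBS and incubated 6 hr before compound and 1nM final E2 were added. Sixteen hours later, ATP-based luminescence reported viability.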
# Aromatase (Homo sapiens) = Aromatase (Homo sapiens) (UniProt P11511); assay: qHTS assay to identify aromatase inhibitors (AID 743083); note: % is set by controls: 0 for no effect and ±100 for the full control effect; nearly all actives have a fitted effect of over 55% in size
# Sequence of UniProt P11511 (P11511 whole entry, looked up): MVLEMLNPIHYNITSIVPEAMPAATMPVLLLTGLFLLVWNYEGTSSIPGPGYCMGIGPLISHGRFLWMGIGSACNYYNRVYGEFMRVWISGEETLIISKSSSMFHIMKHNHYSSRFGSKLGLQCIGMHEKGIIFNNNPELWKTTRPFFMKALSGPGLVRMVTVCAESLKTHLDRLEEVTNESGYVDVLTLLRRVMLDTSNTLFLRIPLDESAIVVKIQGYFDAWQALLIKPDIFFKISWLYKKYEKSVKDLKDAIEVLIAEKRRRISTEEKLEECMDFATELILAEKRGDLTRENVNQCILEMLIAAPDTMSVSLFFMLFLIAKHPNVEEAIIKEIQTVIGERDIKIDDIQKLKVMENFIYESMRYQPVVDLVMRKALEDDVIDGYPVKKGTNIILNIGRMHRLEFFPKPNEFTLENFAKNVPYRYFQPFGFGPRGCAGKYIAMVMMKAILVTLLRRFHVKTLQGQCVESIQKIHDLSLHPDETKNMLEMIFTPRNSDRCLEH
# [13] = qHTS assay to identify small molecule agonists of the estrogen receptor alpha (ER-alpha) signaling pathway in the presence of an antagonist - cell viability counter screen (AID 1259386);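 note: potency is the fitted concentration of half-maximal effect; cells exposed to compounds for 22 h at 37 °C before the viability read; nearly all actives have a fitted effect of over 30% in size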
# Outline: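 Viability counter screen using VM7Luc4E2 (full-length ER-alpha, four ERE-luciferase). The cells were treated with compounds alongside ICI-182,780 10.0nM for 22hr, and live-cell protease fluorescence was quantified with CellTiter-Fluor.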
# [14] = Caspase-3/7 induction in CHO-K1 cells by small molecules, qHTS assay (AID 1346980); note: % is set by controls: 0 for no effect and ±100 for the full control effect; nearly all actives have a fitted effect of over 15% in size
# Outline: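 Luminescent Caspase-Glo 3/7 read (30min, room temperature) quantified apoptosis induction. Cells were wild-type CHO-K1, treated with compound for 17hr at 37 C and 5% CO2.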
# [15] = A CellTox Green Cytotoxicity Assay to monitor cytotoxicity in HEK293 cells - 24 hour (AID 1224875); note: % is set by controls: 0 for no effect and ±100 for the full control effect; nearly all actives have a fitted effect of over 45% in size
# Outline: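 Fluorescence intensity, read at 0, 8, 16, 24, 32 and 40 h of compound treatment, reflected dye binding to DNA of dead HEK293 cells; compounds (23 nL, DMSO) were added 5 h after plating cells with reagent.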
# [16] = qHTS assay to identify small molecule antagonists of the sonic hedgehog signaling (Shh) pathway - cell viability counter screen (AID 1259367)
# Outline: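 Cells: 3T3 Gli1-Luc, 2,000/well, 4 hr pre-incubation. Compounds in DMSO, then conditioned medium. Incubation 24 hr, 37C, 5% CO2. CellTiter-Fluor at 23 hr, 1 hr, fluorescence.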
# [17] = qHTS assay to identify small molecule agonists of the androgen receptor (AR) signaling pathway in the presence of an antagonist - cell viability counter screen (AID 1259379);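 note: MDA-kb2 human breast cancer cells carrying an MMTV luciferase reporter; % is set by controls: 0 for no effect and ±100 for the full control effect; nearly all actives have a fitted effect of over 25% in size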
# Outline: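 Seed MDA-kb2 at 3,000 cells/well; incubate 5 hr, 37C, 0% CO2. Add nilutamide to 3.0uM final, then pin compounds at 15 concentrations. Incubate 16 hr. Add CellTiter-Fluor at 15 hr, read fluorescence after 1 hr.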
# [18] = qHTS assay to identify small molecule agonists of the TGF-beta/Smad signaling pathway (AID 1346859; active = well fitted activation curve with a large enough effect in the signal ratio in the repeat runs, not every such curve was filed as active; inconclusive = weak or mixed curves; the % refers to the signal ratio; note: % is set by controls: 0 for no effect and ±100 for the full control effect)
# Outline: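 Read-out: fluorescence at 460 and 530 nm (405 nm excitation) after a 2 hr room-temperature incubation with beta-lactamase FRET substrate. SBE-bla HEK 293T cells had been treated with test compounds for 5 hr at 37 C.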
# [19] = qHTS assay for small molecule agonists of the antioxidant response element (ARE) signaling pathway - cell viability counter screen (AID 743203; calls by dose curve); conditions: ARE-bla HepG2 viability, CellTiter-Glo luminescence, 16 h; viability change, negative = cytotoxic: at 73.3 µM (top of the series)
# Outline: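 Following 16 hrs of compound treatment at 37C, HepG2 cells with an ARE-controlled beta-lactamase gene were lysed with CellTiter-Glo. Luminescence was read after 30 min at room temperature.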
# Tags give direction and shape of the fitted curve.
structure (smiles),measurement,setting,value
CC(C)(C)c1ccc(C=O)cc1,Potency,[1],"inconclusive [rising, full curve, poor fit]"
same,Potency,[2],inactive
CCCCC(CC)COC(=O)COc1ccc(Cl)cc1Cl (configuration not stated),Potency,[3],inactive
Cc1c(C(C)C)c(=O)n(-c2ccccc2)n1C,Potency,[4],"inconclusive [activator, single point]"
same,Potency,[5],inactive
same,Potency,[6],inactive
O=[N+]([O-])c1cccc(Cl)c1Cl,Potency,[7],inactive
same,Potency,[8],inactive
FC(F)(F)/C(=N\OCC1OCCO1)c1ccc(Cl)cc1,Potency,[9],"inconclusive [rising, single point]"
same,Potency,[2],inactive
Cc1nnc(NS(=O)(=O)c2ccc(N)cc2)s1,Potency,[10],inactive
CC(C)=CCOC(=O)c1ccccc1,Potency,[11],"inconclusive [activator, single point]"
Cc1ccc2c(c1)c1c3n2CCNC3CCC1 (configuration not stated),Potency,[7],inactive
same,Potency,[12],"inconclusive [cytotoxic, partial curve]"
[O]=[Mo](=[O])=[O],activation,[4],inactive: -3.75% [at 19 µM]
CCCCCCCCCCCC,Potency,[4],inactive
same,Potency,[5],inactive
C[C@@H]1CN(c2c(F)c(F)c3c(=O)c(C(=O)O)cn(C4CC4)c3c2F)C[C@H](C)N1,Potency,Aromatase (Homo sapiens),inactive
same,Potency,[9],inactive
CCN(Cc1cccc(S(=O)(=O)O)c1)c1ccccc1,Potency,[13],"inconclusive [cytotoxic, single point]"
CCCCCCCCCCCCCCCCCC#N,Potency,[3],inactive
Cc1ccc(O)c(C(=O)c2ccccc2)c1,Potency,[10],"inconclusive [inhibitor, partial curve]"
C=C(C)C(=O)OC,Potency,[3],inactive
O=CC1CC=CCC1 (configuration not stated),Potency,Aromatase (Homo sapiens),inactive
CC1=C(C/C=C(\C)CCC[C@H](C)CCC[C@H](C)CCCC(C)C)C(=O)c2ccccc2C1=O,Potency,Aromatase (Homo sapiens),inactive
same,Potency,[6],active: 11.2 µM
CC(C)(C)c1cc(CCC(=O)NCCCCCCNC(=O)CCc2cc(C(C)(C)C)c(O)c(C(C)(C)C)c2)cc(C(C)(C)C)c1O,Potency,[2],"inconclusive [falling, full curve]"
CC(C)(C)c1nnc(NS(=O)(=O)c2ccc(N)cc2)s1,Potency,[10],inactive
O=C1Nc2ccccc2C1=O,Potency,[2],"inconclusive [rising, partial curve, poor fit]"
same,Potency,[14],inactive
Cc1ccc(O)c([N+](=O)[O-])c1,Potency,[12],"inconclusive [cytotoxic, partial curve, poor fit]"
CC1(C)CC(N)CC(C)(C)N1,Potency,[13],"inconclusive [cytotoxic, single point]"
O=C(O[C@@H](C(=O)O)[C@@H](OC(=O)c1ccccc1)C(=O)O)c1ccccc1,Potency,[9],"inconclusive [rising, full curve, poor fit]"
same,Potency,[12],inactive
O=C(CCCCC(=O)Nc1c(I)cc(I)c(C(=O)O)c1I)Nc1c(I)cc(I)c(C(=O)O)c1I,Potency,[15],inactive
same,Potency,[11],inactive
NC(=O)Cc1cccc(C(=O)c2ccccc2)c1N,Potency,[16],inactive
CCC(C)(C)C1CCC(=O)CC1,Potency,[17],inactive
same,Potency,[3],inactive
same,Potency,[14],inactive
CCOC(=O)CN1CCCC1=O,activation,[9],inconclusive: 8.9%
CCCCCCCCCCCCCCCC(=O)NCCO,Potency,[5],active: 6.01 µM
C1CCCCCCCCCCC1,Potency,[10],inactive
same,Potency,[13],"inconclusive [cytotoxic, single point]"
same,activation,[18],inactive: 1.5% [at 15.8 µM]
CCOC(=O)c1c(C)n(C)c2ccc(O)cc12,Potency,[6],inactive
CCCCCCC#CC(=O)OC,Potency,[19],"inconclusive [rising, partial curve, poor fit]"
O=[N+]([O-])c1ccc(CO)cc1,Potency,[2],inactive
CCOB(OCC)OCC,Potency,[11],"inconclusive [activator, single point]"
[Ca+2],Potency,[16],inactive
CCc1cccc(CC)c1N(COC)C(=O)CS(=O)(=O)O,Potency,[18],inactive
C1CN(CCOCCN2CCOCC2)CCO1,Potency,[2],inactive
